The whole screen tested about 310,000 compounds, of which about 14,000 (4.5%) showed an effect of 50% or more. The effect is printed as a negative number. This is one part of the list.
What follows are compounds tested against human ether-à-go-go-related gene (hERG) potassium channel (human, UniProt Q12809) (assay: primary screen, population patch clamp on CHO cells stably expressing hERG).
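Further: peak tail current of the secondary pulse compared with the same well before compound.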

Chain of human ether-à-go-go-related gene (hERG) potassium channel (Q12809 whole entry, looked up): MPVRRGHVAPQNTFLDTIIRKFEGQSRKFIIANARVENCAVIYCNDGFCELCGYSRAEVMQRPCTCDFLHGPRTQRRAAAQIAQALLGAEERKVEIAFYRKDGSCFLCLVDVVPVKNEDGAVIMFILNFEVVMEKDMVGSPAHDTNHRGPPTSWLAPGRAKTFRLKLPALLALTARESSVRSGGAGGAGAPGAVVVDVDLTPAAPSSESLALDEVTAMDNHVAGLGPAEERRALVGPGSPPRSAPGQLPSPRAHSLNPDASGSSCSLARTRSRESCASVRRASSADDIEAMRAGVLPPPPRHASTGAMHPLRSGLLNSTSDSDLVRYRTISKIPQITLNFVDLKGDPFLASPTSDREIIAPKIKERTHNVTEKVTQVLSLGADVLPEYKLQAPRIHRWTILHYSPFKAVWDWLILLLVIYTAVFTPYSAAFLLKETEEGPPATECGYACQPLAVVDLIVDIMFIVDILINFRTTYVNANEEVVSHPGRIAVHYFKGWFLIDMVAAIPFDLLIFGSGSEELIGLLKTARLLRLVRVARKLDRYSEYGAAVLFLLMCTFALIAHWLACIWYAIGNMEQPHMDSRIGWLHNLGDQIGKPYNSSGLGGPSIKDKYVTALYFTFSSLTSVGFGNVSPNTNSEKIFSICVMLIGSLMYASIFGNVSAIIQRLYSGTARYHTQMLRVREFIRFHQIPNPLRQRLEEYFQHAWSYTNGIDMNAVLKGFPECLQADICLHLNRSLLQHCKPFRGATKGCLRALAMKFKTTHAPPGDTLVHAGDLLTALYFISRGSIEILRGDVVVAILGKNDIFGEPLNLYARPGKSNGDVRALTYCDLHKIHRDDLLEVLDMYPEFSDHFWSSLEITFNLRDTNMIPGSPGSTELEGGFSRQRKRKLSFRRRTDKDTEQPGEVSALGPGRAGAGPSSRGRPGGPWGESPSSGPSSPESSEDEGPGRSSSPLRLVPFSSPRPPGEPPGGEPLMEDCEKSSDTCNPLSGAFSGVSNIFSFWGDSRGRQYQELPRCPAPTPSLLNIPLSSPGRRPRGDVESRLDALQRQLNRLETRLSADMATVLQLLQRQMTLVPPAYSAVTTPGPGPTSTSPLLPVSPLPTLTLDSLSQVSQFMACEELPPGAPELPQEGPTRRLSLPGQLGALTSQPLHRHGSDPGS

Row | Structure (SMILES) | hERG current change (%, negative = inhibition) at 10uM
1 | CC1(OC(=O)C2CCCC2)C(=O)C=C2C=C(c3ccsc3)N(C3CCCCC3)C=C2C1=O (centres unmarked) | -15.8%
2 | CCOc1ccc(Nc2c3c(nc4ncnn24)CC(C)CC3)cc1 (centres unmarked) | -53.9%
3 | CCOC(=O)C1C2C=CC3(CN(c4ccc(Cl)c(F)c4)C(=O)C13)O2 (centres unmarked) | 5.52%
4 | CC1CN(c2ccccc2)CCN1Cc1nc(Cc2ccccc2)no1 (centres unmarked) | -1.98%
5 | C/C(=N/NC(=O)CNS(=O)(=O)c1ccc(C)cc1)c1cccc([N+](=O)[O-])c1 | 14.5%
6 | C=CCOC(=O)Nc1c(C(=O)OC)[nH]c2ccc(Cl)cc12 | 13.8%
7 | CC1CCCN(C(=O)CN(c2ccccc2)S(=O)(=O)c2ccc(F)cc2)C1 (centres unmarked) | -5.72%
8 | Cc1ccc(OCCNC(=O)CCC(=O)N2CCOCC2)cc1 | 15.9%
9 | Cc1ccc(-c2nnn(CC(=O)N(c3cnc4ccccc4c3)C(C(=O)NC3CCCC3)c3ccncc3)n2)o1 (centres unmarked) | 10.8%
10 | CC(=O)NC(c1ccc(Cl)cc1)c1c(O)ccc2ccc(O)cc12 (centres unmarked) | -4.15%
11 | Nn1c(SCC(=O)NC2CCCCC2)nnc1C1CC1 | 20.7%
12 | CCOc1ccc(C2c3c(oc4cc(C)c(C)cc4c3=O)C(=O)N2CCCN(C)C)cc1OC (centres unmarked) | -2.54%
13 | O=S(=O)(NC1CCCC1)c1ccc(-n2cnnn2)cc1 | -3.62%
14 | O=S(=O)(c1ccccc1)N1CCn2c(nc3ccccc32)C1 | 13.9%
15 | Cc1cccc(C(=O)NC2CCN(C(=O)Nc3ccccc3C)CC2)c1 | 18%
16 | C=CCOc1ccc(/C=C/C(=O)OCC(=O)N(C)CC(=O)Nc2ccc(F)cc2)cc1 | 7.74%
17 | CCOc1ccc(-c2c(C(=O)N/N=C/c3ccsc3)nnn2-c2nonc2N)cc1 | 16.5%
18 | CN(c1ccccc1)S(=O)(=O)c1cccc(C(=O)NCCCN2CCCC2=O)c1 | -11.2%
19 | Cn1cnnc1SCC(=O)NCCc1ccc(Cl)cc1Cl | 11.2%
20 | O=C(NC1=NCCS1)Nc1ccccc1 | 1.08%
21 | Cc1c(Cl)cccc1NC(=S)N(CCN(C)C)C(C)c1ccccn1 (centres unmarked) | -17.5%
22 | Cc1c(CCC(=O)O)c(=O)oc2c(C)c3occ(-c4ccc(Cl)cc4)c3cc12 | 0.602%

Row | Structure (SMILES) | hERG current change (%, negative = inhibition) at 10uM
23 | O=C(Nc1ccc(NC(=O)c2cccs2)c(Cl)c1)c1ccco1 | -39.4%
24 | CC(=O)c1ccc(N/N=C2/CCCNC2=O)cc1 | 11.3%
25 | Cc1cc(C)cc(C(=O)NN2CCN(C)CC2)c1 | 39.5%
26 | CC1CCCC(NC(=O)CCn2c(=O)oc3ccccc32)C1C (centres unmarked) | -18.4%
27 | Cc1ccc(C(=O)N/C(=C\c2cccs2)C(=O)NCCc2ccccn2)cc1C | -1.92%
28 | COc1ccccc1OCCC(=O)OCC(=O)Nc1ncc(Cl)cc1Cl | 4.02%
29 | CC(=O)c1ccc(N2CCN(S(=O)(=O)c3cccc4nsnc34)CC2)cc1 | 22.5%
30 | CCOc1cc(/C=N/NC(=O)C(O)(c2ccccc2)c2ccccc2)ccc1OC(=O)c1ccco1 | 5.61%
31 | CC(=O)N1[C@H](C)C=C[C@]1(Cc1ccccc1)C(=O)NCCc1c[nH]c2ccccc12 | -3.45%
32 | CC(=O)Nc1ccc(NC(=O)C(C)OC(=O)CNC(=O)c2ccc(-c3ccccc3)cc2)cc1 (centres unmarked) | 5.55%
33 | Cc1ccc(Cl)cc1NC(=O)c1ccccn1 | -2.04%
34 | O=C(CCc1nc2ccccc2s1)OCC(=O)c1ccccc1 | -13.6%
35 | COc1cccc(-c2cc(C(=O)Nc3cccnc3Cl)no2)c1 | 25.5%
36 | COC(=O)c1ccc(/C=C/C(=O)c2ccc(OC)c(OC)c2)cc1 | 8.72%
37 | Cc1cccc(CN2CCN(C(=O)c3ccccc3F)CC2)c1 | -5.65%
38 | COc1ccc(CNC(=O)c2cc(=O)c3cc(C)cc(C)c3o2)cc1 | 2.04%
39 | O=C(CSCc1n[nH]c(=O)[nH]1)NCCOc1cccc(Oc2ccccc2)c1 | 6.56%
40 | CCS(=O)(=O)N1CCC(NC(=O)C(Cc2ccc(OC)c(OC)c2)NC(C)=O)CC1 (centres unmarked) | 17.6%
41 | Cc1nn(-c2ccccc2C(=O)O)c(=O)c2ccccc12 | -0.605%
42 | CC1Cc2ccccc2N1C(=O)C1CCCCN1S(=O)(=O)c1ccccc1 (centres unmarked) | -0.157%
43 | Cn1c(SCC(=O)Nc2ccc3[nH]c(=O)[nH]c3c2)nnc1-c1ccc(F)cc1 | 7.63%
44 | COc1ccc(C(=O)C2CCCN(Cc3cnc(C)s3)C2)c(OC)c1 (centres unmarked) | -42.3%

Source: publication PMC4336329 (PLoS ONE, 2015)
